# Measurements as given in PubChem BioAssay AID504832 (National Center for Advancing Translational Sciences (NCATS), 2011).
# Hit rate of the full screen: of about 310,000 compounds, about 18,000 (5.8%) were called active. The shares of active, inactive and inconclusive entries below differ from those in the screen. The call rests on the fitted dose curve; in most records, active means well fitted inhibition curve with a large enough effect; inconclusive means small, poorly fitted or top-dose-only effect, or another doubt; inactive means no such curve, though single readings can be large or run the other way. Potencies of inconclusive entries are left out as doubtful fits.
# Assay: Primary qHTS for delayed death inhibitors of the malarial parasite plastid, 48 hour incubation
# Conditions: P. falciparum luciferase growth in erythrocytes; series mostly up to 28.7 µM
# How it was run: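 Parasite viability was followed by luminescence of a genomically integrated firefly luciferase. Cultures held 0.1% parasitemia at 2% hematocrit (final), incubated under 5% CO2 at 37 C.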
# Potency means the concentration at half of the fitted maximal effect; tags describe the fitted curve by direction and shape.
row,Structure (SMILES),Potency
1,CCN1/C(=C/c2sc(-c3ccccc3C)c[n+]2C)Sc2ccccc21,"inconclusive [inhibitor, full curve]"
2,CC1(C)OC(=O)N(NCc2ccccc2)C1(C)O (stereo not drawn),inactive
3,CCc1ccc(NC(=O)c2cc(C(C)C)on2)cc1,inactive
4,CCOc1nnc(C)c2c(C)n(-c3cccc(OC)c3)nc12,"inconclusive [inhibitor, single point]"
5,CC(c1ccccc1)C(Cc1nc2ccccc2[nH]1)c1nc2ccccc2[nH]1 (stereo not drawn),active: 7.38 µM
6,COc1ccc(/C(C)=N/NC(=O)c2ccc(N(C)C)cc2)cc1,"inconclusive [inhibitor, partial curve, poor fit]"
7,COc1ccccc1CCc1nnc(CCC(=O)NCC(C)Oc2cccnc2)o1 (stereo not drawn),inactive
8,Cc1onc(-c2ccc(Cl)cc2)c1-c1ccnn1S(=O)(=O)c1cccc(C(F)(F)F)c1,active: 1.65 µM
9,O=C(Cc1cccs1)NNC(=S)NC(=O)c1ccccc1,"inconclusive [inhibitor, single point]"
10,COc1cc(C(C)=O)ccc1OCC(=O)c1cc(C)n(C2CC2)c1C,"inconclusive [inhibitor, partial curve]"
11,Cc1ccccc1Nc1nnc(SCC(=O)c2ccc(O)cc2O)s1,"inconclusive [inhibitor, partial curve]"
12,O=[N+]([O-])c1ccc([As](=O)(O)O)cc1,active: 3.01 µM
13,CCCc1nnc(NC(=O)CCC(=O)N2CCCCCC2)s1,"inconclusive [inhibitor, single point]"
14,CCCCNC(=S)NCC(c1ccccc1)c1c[nH]c2ccccc12 (stereo not drawn),"inconclusive [inhibitor, single point]"
15,COc1ccc(N2CCN(C(=O)c3cccs3)CC2)cc1,inactive
16,CCCCOc1cccc(C(=O)Nc2ccc(N3CCN(CC)CC3)cc2)c1,"inconclusive [inhibitor, single point]"
17,COc1ccc(N2CCN(S(=O)(=O)CCNC(=O)c3cc(=O)c4ccccc4o3)CC2)cc1,inactive
18,CSCCC(=O)Nc1nc(-c2ccccn2)cs1,"inconclusive [inhibitor, single point]"
19,COc1cc(OC)cc(C(=O)NC2CC3CCC(C2)N3C)c1 (stereo not drawn),inactive
20,NNC(=O)c1cc2sccc2s1,"inconclusive [inhibitor, single point]"
21,COc1cc2c(cc1OC)C(c1ccccc1)CN(C)CC2 (stereo not drawn),"inconclusive [inhibitor, single point]"
22,Cc1cccn2c(=O)c(/C=C(\C#N)S(=O)(=O)c3ccccc3)c(N3CCCCC3)nc12,"inconclusive [inhibitor, partial curve, poor fit]"
23,O=C(CN1CCN(c2ccccn2)CC1)Nc1cccc(S(=O)(=O)N2CCOCC2)c1,"inconclusive [inhibitor, partial curve, poor fit]"

row,Structure (SMILES),Potency
1,CCn1cc(C(=O)NCC2CCCO2)c(=O)c2cc(S(=O)(=O)N3CCCCCC3)ccc21 (stereo not drawn),"inconclusive [inhibitor, partial curve]"
2,CCOc1ccccc1N(C(=O)CNC(=O)c1ccco1)C(C(=O)NC1CCCC1)c1ccncc1 (stereo not drawn),"inconclusive [inhibitor, partial curve, poor fit]"
3,O=C(Nc1ccc(/C=C/c2nc3ccccc3o2)cc1)c1cccc(C(F)(F)F)c1,inactive
4,CCOC(=O)/C=c1\s/c(=C\c2ccccc2OC)c(=O)n1CC(=O)N1CCOCC1,"inconclusive [inhibitor, single point]"
5,CC1CCCCN1CCNC(=O)CCc1nnc2n(Cc3ccccc3)c(=O)c3ccccc3n12 (stereo not drawn),"inconclusive [inhibitor, single point]"
6,CN(C)c1ccnc(Oc2ccccc2)c1C#N,inactive
7,O=C(Nc1ccc(S(=O)(=O)N2CCOCC2)cc1)c1ccc2ncsc2c1,"inconclusive [inhibitor, single point]"
8,Cc1cc(C(C)(C)C)cc(C)c1COC(=O)c1cccnc1,"inconclusive [inhibitor, single point]"
9,Clc1ccc2c(N/N=C/c3ccccc3Br)ccnc2c1,active: 0.657 µM
10,C=CCOC(=O)C1=C[C@H](c2cn(C(C)=O)c3ccccc23)[C@@H](CCCO)[C@H](OCC)O1,"inconclusive [inhibitor, partial curve]"
11,COC(=O)C1=C(c2ccc(-c3ccccc3)c(F)c2)C[C@@H]2CC[C@H]1N2C(=O)NCCNC(C)=O,"inconclusive [inhibitor, single point]"
12,CCN(CC)S(=O)(=O)c1ccc(N2CCN(CCOc3ccc(OC)cc3)CC2)nc1,"inconclusive [inhibitor, full curve]"
13,CC(=O)c1ccc(C(=O)Nc2sc3c(c2C(N)=O)CCN(Cc2ccccc2)C3)cc1,"inconclusive [inhibitor, single point]"
14,COC(=O)c1ccc(NC(=O)CN2CCN(S(=O)(=O)c3ccc(Br)cc3)CC2)cc1,inactive
15,O=C(/C=C/c1cccs1)N1CCC2(CC1)Oc1ccc(Cl)cc1C(=O)C21CC(c2ccccc2)=NO1 (stereo not drawn),active: 13.1 µM
16,COc1ccc(/C(C)=N/Nc2nc3ccccc3n3cnnc23)cc1OC,"inconclusive [inhibitor, partial curve, poor fit]"
17,S=C1NC[C@H](Cc2ccccc2)N1CCc1cccc2ccccc12,"inconclusive [inhibitor, partial curve, poor fit]"
18,Cc1ccc(S(=O)(=O)N2CCC(=O)N(CCOCc3cccc(C(F)(F)F)c3)CC2)cc1,"inconclusive [inhibitor, single point]"
19,CC(C(=O)Nc1cccnc1)c1ccc([N+](=O)[O-])cc1 (stereo not drawn),"inconclusive [inhibitor, single point]"
20,O=C(N1CCN(c2ccccn2)CC1)C(Cl)(Cl)Cl,active: 9.28 µM
21,Cc1cc(C)c(C#N)c(OCC(=O)c2ccc(Br)cc2)n1,"inconclusive [inhibitor, single point]"
22,COC(=O)C1=C(C)NC(=S)NC1c1ccc(OCC(=O)N2CC(C)OC(C)C2)c(OC)c1 (stereo not drawn),"inconclusive [inhibitor, partial curve, poor fit]"
23,Nn1c(SCC(=O)Nc2cc(S(=O)(=O)N3CCOCC3)ccc2Cl)nnc1-c1cccnc1,inactive

row,Structure (SMILES),Potency
1,CC(C)CCOc1ccc(NC(=O)C2OC3OC(C)(C)OC3C3OC(C)(C)OC23)cc1 (stereo not drawn),"inconclusive [inhibitor, single point]"
2,CCOC(=O)c1c(/N=C/C2C(=O)NC(=S)NC2=O)sc2c1CCC2,"inconclusive [inhibitor, partial curve, poor fit]"
3,Cc1ccc(/C=N/Nc2nc(Cl)c(Cl)cc2Cl)s1,inactive
4,CCCCOc1ccc(/C=C/C2=CC(C)(C)NC(=S)N2)cc1OCC,"inconclusive [inhibitor, full curve]"
5,Oc1ccccc1Oc1ncc(Br)c(N2CCOCC2)n1,inactive
6,COc1ccc2[nH]cc(C(=O)CN3CCCCC3C)c2c1 (stereo not drawn),inactive
7,CCOc1ccc(/C=C2\SC(=O)N(CCNC(=O)C3COc4ccccc4O3)C2=O)cc1OC (stereo not drawn),"inconclusive [inhibitor, partial curve, poor fit]"
8,CCOC(=O)c1c(NC(=O)CSc2nnnn2C)sc(CC)c1C,"inconclusive [inhibitor, partial curve, poor fit]"
9,CCCCC[C@H]1CN(Cc2ccccc2)C(=O)[C@@H]1CC(=O)NCc1ccccc1,inactive
10,Cc1ccccc1OCC(=O)Nc1ccccc1N1CCOCC1,"inconclusive [inhibitor, partial curve, poor fit]"
11,O=C(NC(=S)N1C[C@H]2C[C@H](C1)c1cccc(=O)n1C2)c1ccc(Cl)cc1,"inconclusive [inhibitor, full curve, poor fit]"
12,CCOC(=O)C1=C(C)NC(=O)NC1c1cc(C)sc1C (stereo not drawn),"inconclusive [inhibitor, single point]"
13,CCOc1cc(C(=O)NC)cc(Br)c1OCc1ccccc1,"inconclusive [inhibitor, single point]"
14,OCCC1CN(Cc2nc3ccccc3s2)CCN1CCc1ccccc1 (stereo not drawn),"inconclusive [inhibitor, partial curve, poor fit]"
15,CC(C)CC[n+]1ccn(-c2nc3ccccc3nc2[N-]S(=O)(=O)c2ccc(Cl)cc2)c1,inactive
16,Cc1ccc(CCn2c3c(c4ccccc42)CN(C)CC3)cn1,"inconclusive [inhibitor, partial curve, poor fit]"
17,COc1ccc(C(C(=O)NC2CCCC2)N(Cc2ccco2)C(=O)c2snc(C(N)=O)c2N)cc1OC (stereo not drawn),"inconclusive [inhibitor, single point]"
18,CN(Cc1ccccc1)C1=CC(=[N+]2CCCCC2)CC(C)(C)C1,active: 0.37 µM
19,CC(c1ccco1)N(C(=O)c1ccc(C(F)(F)F)cc1)c1ccccn1 (stereo not drawn),inactive
20,CN1c2cccc3cccc(c23)N(C)C1(C)C,"inconclusive [inhibitor, partial curve, poor fit]"
21,COc1ccc(-c2cc(C(=O)N3CCN(c4ccccc4)CC3)c3ccccc3n2)cc1OC,"inconclusive [inhibitor, single point]"
22,COCCn1c(SC(C)C(=O)NCC2CCCO2)nc2sc3c(c2c1=O)CCC3 (stereo not drawn),"inconclusive [inhibitor, partial curve]"
